From PMC4336329 (PLoS ONE, 2015) come the findings set out here.

Hit rate of the full screen: of about 310,000 compounds, about 2,200 (0.71%) showed an effect of 50% or more. The effect is printed as a negative number. The list shows a part of the results.

This test deals with human ether-à-go-go-related gene (hERG) potassium channel (human, UniProt Q12809). The experiment in a line: primary screen, population patch clamp on CHO cells stably expressing hERG.
Chain of human ether-à-go-go-related gene (hERG) potassium channel (Q12809 whole entry, looked up): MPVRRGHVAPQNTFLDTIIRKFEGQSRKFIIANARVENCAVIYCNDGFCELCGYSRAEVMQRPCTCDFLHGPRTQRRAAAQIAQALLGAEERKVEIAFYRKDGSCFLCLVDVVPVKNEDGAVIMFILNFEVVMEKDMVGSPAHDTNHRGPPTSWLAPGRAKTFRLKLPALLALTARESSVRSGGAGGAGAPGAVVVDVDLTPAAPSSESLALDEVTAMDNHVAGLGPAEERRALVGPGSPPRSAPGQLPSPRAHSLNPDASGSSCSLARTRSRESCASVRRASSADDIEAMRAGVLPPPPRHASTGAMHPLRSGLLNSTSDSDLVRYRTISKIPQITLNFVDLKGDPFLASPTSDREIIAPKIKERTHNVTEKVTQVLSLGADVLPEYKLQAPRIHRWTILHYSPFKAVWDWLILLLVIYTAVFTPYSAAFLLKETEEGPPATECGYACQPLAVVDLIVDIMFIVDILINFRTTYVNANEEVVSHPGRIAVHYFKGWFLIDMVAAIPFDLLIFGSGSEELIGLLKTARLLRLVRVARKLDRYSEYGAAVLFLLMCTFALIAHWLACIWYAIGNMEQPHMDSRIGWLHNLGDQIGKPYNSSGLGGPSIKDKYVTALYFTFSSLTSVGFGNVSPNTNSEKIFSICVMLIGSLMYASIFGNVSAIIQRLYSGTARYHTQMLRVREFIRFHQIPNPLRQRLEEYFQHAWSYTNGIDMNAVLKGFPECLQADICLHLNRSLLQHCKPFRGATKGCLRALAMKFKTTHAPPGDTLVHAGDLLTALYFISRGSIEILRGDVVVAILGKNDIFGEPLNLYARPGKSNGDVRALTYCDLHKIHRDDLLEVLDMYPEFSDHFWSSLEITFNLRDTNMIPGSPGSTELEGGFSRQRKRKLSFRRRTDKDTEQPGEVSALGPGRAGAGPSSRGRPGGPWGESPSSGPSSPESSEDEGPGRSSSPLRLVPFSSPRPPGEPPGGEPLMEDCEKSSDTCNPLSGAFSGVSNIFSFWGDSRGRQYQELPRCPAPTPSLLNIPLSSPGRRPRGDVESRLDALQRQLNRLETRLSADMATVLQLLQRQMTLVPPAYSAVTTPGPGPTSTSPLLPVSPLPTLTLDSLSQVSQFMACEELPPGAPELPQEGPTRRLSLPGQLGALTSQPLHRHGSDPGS
On to `C=CCC1(C#N)C(SC)=NC2=C(C(=O)CC(C)(C)C2)C1c1ccc(Br)cc1` (centres unmarked), for which the “hERG current change (%, negative = inhibition) at 1uM” value was found to be 9.38%.

Take `CCOC(=O)C1CCCN(Cc2cc(=O)oc3cc(C)c(C)cc23)C1` (centres unmarked): the “hERG current change (%, negative = inhibition) at 1uM” value was found to be 9.9%.

For `Cc1ccc(-c2nc(CNC(=O)c3cc(C)on3)cs2)cc1`, the “hERG current change (%, negative = inhibition) at 1uM” value stood at 17.9%.

Regarding `COC(=O)c1ccc(Oc2ccc(C(F)(F)F)cn2)cc1`, the “hERG current change (%, negative = inhibition) at 1uM” value worked out at 11.9%.

For `CNC(=O)COC(=O)c1ccccc1Nc1ccccc1`, the “hERG current change (%, negative = inhibition) at 1uM” value was 3.47%.

Take `O=C(O)CCCn1cc(NC(=O)COc2ccccc2)cn1`: the “hERG current change (%, negative = inhibition) at 1uM” value amounted to 8.62%.

On to `CCCCNC(=O)/C=C/c1cccs1`, for which the “hERG current change (%, negative = inhibition) at 1uM” value amounted to 24.3%.

Take `Cc1noc(C)c1CSc1nc2ccccc2s1`: the “hERG current change (%, negative = inhibition) at 1uM” value amounted to 5.56%.

`COc1ccc(NC(=O)CSc2nnc(Cc3cccs3)n2-c2ccc(C)cc2)cc1`: the “hERG current change (%, negative = inhibition) at 1uM” value is reported as -8.63%.

With `O=C(Nc1ccc(N2CCN(C(=O)c3cccs3)CC2)cc1)c1ccc([N+](=O)[O-])o1`, the “hERG current change (%, negative = inhibition) at 1uM” value is -15.8%.

Consider `COc1ccc(OC)c(NC(=O)CCNS(=O)(=O)c2ccc3[nH]c(=O)oc3c2)c1`, for which the “hERG current change (%, negative = inhibition) at 1uM” value amounted to 11.3%.

Regarding `Cn1c(SCC(=O)NCCc2ccccc2)nnc1-c1ccco1`, the “hERG current change (%, negative = inhibition) at 1uM” value is reported as 6.51%.

For `Cc1nc2ccccc2c(=O)n1NC(=O)C1CCC(C(C)(C)C)CC1` (centres unmarked), the “hERG current change (%, negative = inhibition) at 1uM” value worked out at 10.4%.

Take `COc1ccc(NC(=O)C2CCN(S(=O)(=O)c3ccc(C)cc3)CC2)cc1OC`: the “hERG current change (%, negative = inhibition) at 1uM” value was -20%.

On to `CCOc1ccc(CCNC(=O)C2CCCN(S(C)(=O)=O)C2)cc1OCC` (centres unmarked), for which the “hERG current change (%, negative = inhibition) at 1uM” value was 10.9%.

In the case of `O=C(c1ccc2c(c1)OCO2)C1CCCN(CC2CCCCC2)C1` (centres unmarked), the “hERG current change (%, negative = inhibition) at 1uM” value is listed as -44.2%.

In the case of `O=C(c1cccc(C(F)(F)F)c1)C1CCCN(C(=O)CN2CCOC2=O)C1` (centres unmarked), the “hERG current change (%, negative = inhibition) at 1uM” value was found to be 8.48%.

With `CCOC(=O)C1(C)C=C(Nc2ccc(C)cc2)C(=O)N1c1ccc(C)cc1` (centres unmarked), the “hERG current change (%, negative = inhibition) at 1uM” value is listed as 11.1%.

For `C=CCn1c(C)cc(C(=O)CSc2nc3ccccc3o2)c1C`, the “hERG current change (%, negative = inhibition) at 1uM” value is 21.2%.

With `COc1cccc(SCC2(O)CCN(C(=O)c3ccc(Cl)cc3)CC2)c1`, the “hERG current change (%, negative = inhibition) at 1uM” value is given as -7.75%.

As for `COc1ccc(NC(=O)C23CC4CC(C2)CC(n2cnc(Br)n2)(C4)C3)cc1OC`, the “hERG current change (%, negative = inhibition) at 1uM” value came out at 13.4%.

Turning to `CCOc1ccc(CNCc2ccc(C(=O)O)cc2)cc1OC.Cl`, the “hERG current change (%, negative = inhibition) at 1uM” value was 5.44%.

Consider `O=C(c1ccc(NS(=O)(=O)c2ccc3c(c2)OCCO3)cc1)N1CCCCC1`, for which the “hERG current change (%, negative = inhibition) at 1uM” value amounted to 3.87%.

Regarding `CCc1ccc(OCc2ccc(C(=O)OC)o2)cc1`, the “hERG current change (%, negative = inhibition) at 1uM” value is listed as 22.1%.

Take `COc1ccc(NC(=O)CCSc2nnc(C)s2)cc1`: the “hERG current change (%, negative = inhibition) at 1uM” value was 27.4%.

In the case of `COC(=O)CCCC1=CC2=CC(=O)C(C)(OC(=O)c3cccs3)C(=O)C2=CO1` (centres unmarked), the “hERG current change (%, negative = inhibition) at 1uM” value worked out at 11%.

For the compound `CC(NC(=O)NC1CCCCC1)C(c1cccs1)N1CCN(c2ccccc2)CC1` (centres unmarked), the “hERG current change (%, negative = inhibition) at 1uM” value was -2.77%.

As for `C=CCNCCCCOc1ccc(C)cc1[N+](=O)[O-]`, the “hERG current change (%, negative = inhibition) at 1uM” value is recorded as -7.79%.

For the compound `CC(C)CCN1C(Nc2ccccc2)=NC[C@@H]1C`, the “hERG current change (%, negative = inhibition) at 1uM” value was found to be 0.156%.

With `Cc1cc(C)nc(/N=C(\N)Nc2cccc([N+](=O)[O-])c2)n1`, the “hERG current change (%, negative = inhibition) at 1uM” value is listed as -2.85%.

With `COc1ccccc1N(C)S(=O)(=O)c1ccc(C(=O)Nc2nc(C)c(C(C)=O)s2)cc1`, the “hERG current change (%, negative = inhibition) at 1uM” value was found to be 6.66%.

As for `CCCNC(=O)/C=C/c1ccc(C(C)C)cc1`, the “hERG current change (%, negative = inhibition) at 1uM” value was 4.97%.

For the compound `CC1CCN(C(=O)CCNS(=O)(=O)c2ccccc2)CC1`, the “hERG current change (%, negative = inhibition) at 1uM” value stood at 5.23%.

`N=C1/C(=C\c2ccc(-c3cccc(C(=O)O)c3)o2)C(=O)N=C2SC=C(c3ccccc3)N12`: the “hERG current change (%, negative = inhibition) at 1uM” value is 5.77%.

On to `C=CCn1c(SCc2nc3ccccc3c(=O)[nH]2)nc2scc(C3CC3)c2c1=O`, for which the “hERG current change (%, negative = inhibition) at 1uM” value was determined as 6.31%.

As for `CCCCN1CC(=O)N2[C@H]3c4cc(Cl)ccc4OC[C@@H]3[C@H](c3ccccc3)[C@]2(C)C1=O`, the “hERG current change (%, negative = inhibition) at 1uM” value was 13.1%.

For the compound `Cc1ccc(S(=O)(=O)Nc2cccc(C(=O)NCC3(N4CCCCC4)CCCCC3)c2)cc1F`, the “hERG current change (%, negative = inhibition) at 1uM” value was -76.4%.

On to `COCCn1cc(C(=O)N2CCC(C)CC2)c2c3ccccc3n(C)c2c1=O`, for which the “hERG current change (%, negative = inhibition) at 1uM” value is -3.88%.

For the compound `Cc1ccc(C)c2[nH]c(=O)c(CN(CCCN(C)C)C(=O)NCc3ccccc3)cc12`, the “hERG current change (%, negative = inhibition) at 1uM” value is on record as -16.1%.

As for `Cc1cc(NC(=O)c2cccs2)n(-c2ccccc2)n1`, the “hERG current change (%, negative = inhibition) at 1uM” value was 7.12%.

As for `CC(C)c1nc2sc3c(NCc4ccccc4)ncnc3c2c2c1COC(C)(C)C2`, the “hERG current change (%, negative = inhibition) at 1uM” value was determined as 19.3%.

For `CCn1cc(S(=O)(=O)CC(=O)Nc2cc(C)ccc2C)c2ccccc21`, the “hERG current change (%, negative = inhibition) at 1uM” value worked out at 9.05%.

Turning to `Cc1c(CCC(=O)NCC(=O)O)c(=O)oc2cc3occ(-c4ccccc4)c3cc12`, the “hERG current change (%, negative = inhibition) at 1uM” value turned out to be 13%.

Regarding `CCc1ccc(N(C(=O)c2csnn2)C(C(=O)NC(C)(C)CC)c2cccnc2)cc1` (centres unmarked), the “hERG current change (%, negative = inhibition) at 1uM” value came to 1.95%.

Turning to `CC(=O)Nc1ccc(NC(=O)Nc2cc(C)cc(C)c2)cc1`, the “hERG current change (%, negative = inhibition) at 1uM” value turned out to be 11.8%.

As to `CSc1cccc2sc(NC(=O)C3=COCCO3)nc12`, the “hERG current change (%, negative = inhibition) at 1uM” value is 8.18%.

Consider `COc1ccccc1-n1ccnc1SCC(=O)NC(C)(C)C`, for which the “hERG current change (%, negative = inhibition) at 1uM” value is listed as 11.1%.

Regarding `CCN1CCN(C(=O)c2oc(=O)c3ccccc3c2-c2ccc(C)cc2)CC1`, the “hERG current change (%, negative = inhibition) at 1uM” value was -1.55%.

In the case of `Cc1ccc(O)c(N=Nc2nccs2)c1`, the “hERG current change (%, negative = inhibition) at 1uM” value is listed as 12.5%.

As to `NC(=NCCCCCCN=C(N)/N=C(\N)Nc1ccc(Cl)cc1)/N=C(\N)Nc1ccc(Cl)cc1`, the “hERG current change (%, negative = inhibition) at 1uM” value is -1.46%.

On to `Cc1cccc(C)c1NC(=O)CNC(=O)c1ccc(N2CCCC2=O)cc1`, for which the “hERG current change (%, negative = inhibition) at 1uM” value came to 6.04%.

In the case of `CSc1nccc(Nc2ccccc2)c1C#N`, the “hERG current change (%, negative = inhibition) at 1uM” value was 14.7%.

For `COc1ccc(CNc2ncnc3c2[nH]c2ccccc23)cc1`, the “hERG current change (%, negative = inhibition) at 1uM” value was found to be 12.6%.

On to `COC(=O)C1=C(c2ccccc2)C[C@@H]2CC[C@H]1N2C(=O)NC1CC1`, for which the “hERG current change (%, negative = inhibition) at 1uM” value came out at 7.4%.

For the compound `Cc1ccc(C(=O)NNC(=O)c2ccncc2)cc1S(=O)(=O)N1CCCCC1`, the “hERG current change (%, negative = inhibition) at 1uM” value was 9.84%.

As to `CCC(C)NC(=O)c1ccc2nc(-c3ccc(OC)c(OC)c3)c(-c3ccc(OC)c(OC)c3)nc2c1` (centres unmarked), the “hERG current change (%, negative = inhibition) at 1uM” value came to 12.6%.
